Source: PubChem BioAssay AID504466 (National Center for Advancing Translational Sciences (NCATS), 2011)
Screen size: about 330,000 compounds; about 4,200 (1.3%) were called active. Inconclusive results, whose numbers are uncertain, are shown with a selection of clear calls. The call rests on the fitted dose curve; in most records, active means well fitted activation curve with a large enough effect; inconclusive means small, poorly fitted or top-dose-only effect; inactive means no such curve, though single readings can be large or run the other way. Where the call is inconclusive, the potency comes from a doubtful curve fit.

experiment: qHTS screen for small molecules that induce genotoxicity in human embryonic kidney (HEK293T) cells expressing luciferase-tagged ELG1; details: HEK293T ELG1-luciferase reporter, luminescence, 16 h; series mostly up to 46 µM; activity change, positive = activation: at the top concentration; further: nearly all actives have a fitted effect of over 60% in size; on activity change, positive = activation: % of control where 0% means no effect
In short: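 ELG1-luciferase HEK293T cells, 2,000/well; compound pinned in; 16 hr, 37 °C, 5% CO2; ONE-Glo, 30 min RT; luminescence on CCD imager.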
Potency means the concentration at half of the fitted maximal effect; tags describe the fitted curve by direction and shape.

SMILES	Potency	activity change, positive = activation
COc1ccc(C(=O)NCC2OCCc3ccccc32)c(O)c1 (stereo not given)	inconclusive: 18.4 µM [activator, partial curve]	–
Cc1cc(NCCCN(C)C)n2nc(-c3cccs3)cc2n1	inconclusive: 23.1 µM [activator, partial curve, poor fit]	–
COc1ccccc1N1CCN(c2ccnc3cc(Cl)ccc23)CC1	–	inactive: -18.1%
NNC(=O)c1oc2nc(-c3cccs3)cc(-c3ccco3)c2c1N	–	inactive: 2.8%
Nc1ccc(/C=C/C(=O)c2ccco2)cc1	inconclusive: 20.6 µM [activator, partial curve, poor fit]	–
O=C(N/N=C/c1ccccn1)c1ccc(Br)cc1	inconclusive: 29.1 µM [activator, single point]	–
Cc1nnc(NC(=O)c2ccc(-c3ccc(Cl)cc3)o2)s1	–	inactive: 3.99%
CN(C)/C=N/c1sc2c(c1C#N)CCCCC2	inconclusive: 29.1 µM [activator, partial curve, poor fit]	–
CC(NC(=O)c1ccc2c(c1)OCO2)C1CCCO1 (stereo not given)	–	inactive: 2.5%
Cc1ccsc1C(=O)OCC(=O)NC1CCCC1	inconclusive: 18.3 µM [activator, partial curve, poor fit]	–
CCN1CCN(S(=O)(=O)c2ccc(OC)c3ccccc23)CC1	–	inactive: -4.42%
Cc1snc2sc(C(=O)c3ccc(Br)cc3)c(N)c12	active: 11.6 µM	–
COc1ccc2oc(C(=O)OCC(=O)/C(C#N)=C(\C)N)c(C)c2c1	inconclusive: 23.1 µM [activator, partial curve, poor fit]	–
Cc1cc(N2CCOCC2)nc2ccc(NC(=O)CCC(=O)N3CCCCC3)cc12	inconclusive: 9.2 µM [activator, partial curve]	–
COc1ccc(OCc2cc(C(=O)N[C@H]3CCCCNC3=O)no2)c(Cl)c1	inconclusive: 20.6 µM [activator, single point]	–
Cc1cc(C)c2nc(NNC(=O)c3ccc(S(=O)(=O)N4CCCCC4)cc3)sc2c1	inconclusive: 29.1 µM [activator, partial curve, poor fit]	–
COCCOCCn1c(/C=C/c2ccccc2)nc2ccccc21	inconclusive: 2.31 µM [activator, partial curve]	–
COCCOC(=O)CSc1ncccc1-c1nc2cc(C)c(C)cc2[nH]1	inconclusive: 18.3 µM [activator, partial curve, poor fit]	–
Cc1ccc(NC(=O)c2cc3ccccc3oc2=O)cc1S(=O)(=O)N(C)C	–	inactive: 10.3%
Cc1ccc(OCC(=O)Nc2ccc3c(c2)CCC3)c([N+](=O)[O-])n1	inconclusive: 14.6 µM [activator, partial curve, poor fit]	–
COc1ccc(NC(=O)OCC(C)C)cc1OC	inconclusive: 18.4 µM [activator, single point]	–
NS(=O)(=O)c1cc(C(=O)Nc2ccc3c(c2)CCC3)ccc1Cl	active: 10.3 µM	–
CNc1ccc(/C=C/C(=O)c2ccc3c(c2)OCCO3)cc1[N+](=O)[O-]	inconclusive: 20.6 µM [activator, partial curve, poor fit]	–
Cc1noc(C)c1C(=O)OCC(=O)Nc1cc(S(=O)(=O)N2CCOCC2)ccc1Cl	–	inactive: -1.84%
CNC(=O)c1cc2c(s1)-c1ccccc1CC2	inconclusive: 20.6 µM [activator, partial curve]	–

SMILES	Potency	activity change, positive = activation
Cn1nnnc1SCc1ccc(C(=O)Nc2ccc(Br)cc2)cc1	inconclusive: 11.6 µM [activator, partial curve, poor fit]	–
C/C(CC(=O)Nc1cc(C)ccn1)=N\NC(=O)c1cccc(C)c1O	active: 5.8 µM	–
O=C(CCNC(=O)c1ccc(Br)cc1)NCC1COc2ccccc2O1 (stereo not given)	inconclusive: 16.4 µM [activator, partial curve, poor fit]	–
Cc1ccnc(NC(=O)c2ccc(Cl)c(S(=O)(=O)N3CCCC3)c2)c1	inconclusive: 13 µM [activator, single point]	–
CC(C)C(=O)Nc1ccc2oc(-c3cc(F)c(F)cc3Cl)nc2c1	inconclusive: 23.1 µM [activator, partial curve]	–
COCc1cc(=O)n2[nH]c(-c3cccc(Br)c3)cc2n1	active: 11.2 µM	–
CCOCc1c(C(=O)N2CCN(CC(=O)Nc3ccc(F)cc3)CC2)oc2ccccc12	–	inactive: 0.432%
COc1ccc(-c2cc(C(F)(F)F)nc(SCC(=O)Nc3ccc4c(c3)OCO4)n2)cc1OC	inconclusive: 25.9 µM [activator, partial curve, poor fit]	–
CCn1cnc2cc(NCc3cccc(OC)c3O)ccc21	active: 18.4 µM	–
COc1ccc(CC(=O)Nc2ccc(NC(=O)c3ccccc3F)cc2)cc1	–	inactive: 9.61%
COc1cc(C(=O)Nc2cccc(C(C)=O)c2)cc(OC)c1OC	–	inactive: 1.26%
CN(C)c1nc(-c2ccccc2)ns1	inconclusive: 20.6 µM [activator, partial curve, poor fit]	–
CN1CCN(NC(=O)c2cc(S(=O)(=O)Nc3ccc(Cl)cc3)ccc2Cl)CC1	–	inactive: -5.12%
CCc1ccc2nc3n[nH]c(N)c3cc2c1	active: 13 µM	–
Cc1cc(-c2nnco2)c(C)n1-c1ccccc1	active: 11.2 µM	–
C/C(=N\NC(=O)c1cccs1)c1ccc(C(=O)O)s1	inconclusive: 18.3 µM [activator, single point]	–
COc1ccc(S(=O)(=O)N2CCOC2CNC(=O)C(=O)NCCCN2CCOCC2)cc1 (stereo not given)	inconclusive: 25.9 µM [activator, partial curve, poor fit]	–
Cc1cc(NCCOCCO)n2ncc(-c3ccc(Cl)cc3)c2n1	inconclusive: 2.06 µM [activator, partial curve]	–
CCOC(=O)c1ccc(Nc2ccc(-c3ccc(OC)c(OC)c3)nn2)cc1	–	inactive: 14.4%
c1ccc(CNc2ccc(N3CCOCC3)cc2)cc1	inconclusive: 14.6 µM [activator, partial curve]	–
Cc1cc(=O)[nH]c(SCc2ccccc2)n1	–	inactive: 4.49%
COC(=O)c1cc2oc(C)cc2n1CC(=O)N1CCCc2ccccc21	–	inactive: 1.19%
Oc1ccc(/C=N/NC2=NCCCCC2)c(O)c1	active: 7.31 µM	–
O=S(=O)(c1ccccc1C(F)(F)F)N1CCN(c2ncnc3sccc23)CC1	–	inactive: -8.92%
Clc1ccccc1N/N=C/c1ccc2c(c1)OCO2	inconclusive: 25.9 µM [activator, single point]	–

SMILES	Potency	activity change, positive = activation
COc1ccc2nc(Nc3nc4cc5c(cc4s3)OCCO5)sc2c1	inconclusive: 25.9 µM [activator, partial curve, poor fit]	–
Cc1c(C(=O)N2c3ccccc3CC2C)oc2ccccc12 (stereo not given)	inconclusive: 3.66 µM [activator, full curve]	–
CCOc1ccc(C2C(C(=O)c3ccco3)=C(O)C(=O)N2CCCn2ccnc2)cc1 (stereo not given)	inconclusive: 23.1 µM [activator, single point]	–
CCOc1ncccc1C(=O)OCC(=O)c1cc(C)n(Cc2ccco2)c1C	active: 6.51 µM	–
OC(CNC1CCCC1)COCCOc1ccc(Br)cc1 (stereo not given)	–	inactive: -3.64%
COc1ccc(C(=O)/C=C/Nc2cccc(C)n2)cc1OC	inconclusive: 4.61 µM [activator, single point]	–
O=C1CCCN1c1ccc(S(=O)(=O)Oc2ccc(Cl)cc2)cc1[N+](=O)[O-]	–	inactive: 6.24%
COc1cc(OC)cc(-c2sc3ccc(OC)cc3c2-c2ccc3cc[nH]c3c2)c1	–	inactive: -0.81%
Cc1cccnc1NC(=O)c1ccc2c(c1)NC(=O)C(C)S2 (stereo not given)	inconclusive: 20.6 µM [activator, single point]	–
COc1cccc(-c2cc3onc(-c4ccccc4)c3c(=O)n2C)c1	inconclusive: 1.3 µM [activator, partial curve]	–
NNC(=O)c1nc[nH]c1C(=O)Nc1ccccc1	–	inactive: -5.89%
NNC(=O)c1cc2c(s1)-c1cc(Cl)ccc1SC2	–	inactive: -1.66%
NC(=O)Cn1cc(C(=O)COc2ccccc2)c2ccccc21	–	inactive: -1.2%
COc1cc(NC(=O)c2cccc(S(=O)(=O)N3CCCCC3)c2)cc(OC)c1OC	–	inactive: 0.757%
CN(C)S(=O)(=O)Oc1cccc(C(=O)Nc2cccc(Cl)c2)c1	–	inactive: 0.213%
CCc1ccc(NC(=O)Cn2nnc(C(=O)NCc3cccs3)c2N)cc1	inconclusive: 29.1 µM [activator, partial curve, poor fit]	–
COc1cccc(/C=N/NC(=O)C(C)n2nc(C)c([N+](=O)[O-])c2C)c1O (stereo not given)	inconclusive: 32.6 µM [activator, partial curve, poor fit]	–
Cc1ccc2nc(-c3ccc(NC(=S)NC(=O)CC(C)C)cc3)sc2c1	active: 9.2 µM	–
COc1cc(/C=N/N=C2/NC(=O)C(Cc3ccc(F)cc3)S2)ccc1O (stereo not given)	inconclusive: 2.91 µM [activator, full curve]	–
COc1ccc(/C=C/C(=O)Oc2cccc(/C=N/NC(=O)Cc3ccc(Br)cc3)c2)cc1	inconclusive: 7.3 µM [activator, partial curve]	–
O=C(Nc1ccc(NC(=O)C2CCCCC2)nc1)c1cccc(F)c1	–	inactive: 18%
CCc1ccc(NC(=O)CSc2ccc(-c3ccccn3)nn2)cc1	inconclusive: 25.9 µM [activator, partial curve, poor fit]	–
Cc1ccc2c(c1)N=C(c1ccc(F)cc1)CO2	inconclusive: 7.31 µM [activator, partial curve]	–
CCCc1ccc(OCCNC(=O)CC)cc1	inconclusive: 29.1 µM [activator, partial curve, poor fit]	–
CC(=O)c1cccc(OCc2cc(C(=O)NCc3nc(C)c(C)s3)no2)c1	inconclusive: 18.3 µM [activator, single point]	–
